# From PubChem BioAssay AID1458 (National Center for Advancing Translational Sciences (NCATS), 2008)
# The campaign covered roughly 210,000 compounds. About 5,900 (2.8%) were called active. Inconclusive results, whose numbers are uncertain, are shown with a selection of clear calls. Calls come from the whole dose curve; as a rule, active = well fitted activation curve with a large enough effect; inconclusive = small, poorly fitted or top-dose-only effect; inactive = no such curve, though single readings can be large or run the other way. Where the call is inconclusive, the potency comes from a doubtful curve fit.
# Assay: qHTS Assay for Enhancers of SMN2 Splice Variant Expression; note: nearly all actives have a fitted effect of over 55% in size; for activity change, positive = activation: % of control where 0% means no effect
# Conditions: HEK293 SMN2-luciferase splicing reporter, luminescence, 30-36 h; activity change, positive = activation: at 46.1 µM (top of the series)
# How it was run: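 qHTS luciferase splicing reporter: luminescence rises when SMN2 exon 7 is included in transfected HEK293 cells. Compound exposure lasted 30-36 h at 37C, with 4.5 mM final sodium butyrate as control, followed by a ONE-Glo read.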
# Potency is the fitted concentration of half-maximal effect; tags give direction and shape of the fitted curve.
SMILES,Potency,"activity change, positive = activation"
COC(=O)c1c(NC(=O)Nc2ccc(Cl)cc2)sc(C)c1C,"inconclusive: 20 µM [activator, partial curve, poor fit]",–
CC(=O)N1CC(=O)N=C1SCC(=O)Nc1nc(C)c(-c2ccccc2)s1,"inconclusive: 22.4 µM [activator, single point]",–
O=C(C1CCCN(S(=O)(=O)c2cccc3nsnc23)C1)N1CCN(c2ccccc2Cl)CC1 (stereo not given),–,inactive: -12%
COC(=O)c1ccc(/C=N/OCC(=O)NCc2ccc(F)cc2)cc1,"inconclusive: 5.62 µM [activator, single point]",–
Nc1c(-c2nc(-c3ccc4c(c3)OCO4)cs2)c2ccccn2c1C(=O)c1ccccc1,–,inactive: 18.1%
CC(Sc1nnnn1C)C(=O)Nc1ccc2c(c1)OCCO2 (stereo not given),"inconclusive: 11.2 µM [activator, single point]",–
COc1ccccc1NC1=C(C)C(=O)CC1,active: 17.8 µM,–
COCCN1Cc2cccc(C(=O)Nc3cccnc3)c2C1=O,"inconclusive: 0.251 µM [activator, full curve, poor fit]",–
N#[N+]c1ccc(Nc2ccccc2)cc1,–,inactive: -4.9% [at 9.22 µM]
CCCC1=Nc2cc(C(=O)NCCc3ccccc3)ccc2Sc2ccc(C)cc21,–,inactive: -13.6%
O=C(NCc1ccccc1)N(Cc1cc2cc3c(cc2[nH]c1=O)OCCO3)CC1CCCO1 (stereo not given),"inconclusive: 3.16 µM [activator, single point]",–
Cc1ccc(C)c(OCC(=O)Nc2ccc(S(=O)(=O)Nc3onc(C)c3C)cc2)c1C,–,inactive: -7.6%
Cc1ccc(C=Nc2cccnc2N)cc1,"inconclusive: 7.08 µM [activator, partial curve, poor fit]",–
Nc1c(C(=O)NC2CC2)c2nc3ccccc3nc2n1-c1ccc2c(c1)OCO2,–,inactive: -10.3%
COc1ccccc1OCc1cc(-c2ccccc2)no1,active: 12.6 µM,–
CCOC(=O)/C(C#N)=C1\Nc2ccccc2N=C1N(CC(C)C)CC(C)C,"inconclusive: 1.58 µM [activator, partial curve, poor fit]",–
O=C(NCc1cccnc1)/C(=C\c1ccc(-c2cccc(Cl)c2)o1)S(=O)(=O)c1ccccc1,–,inactive: -102%
Cc1ccccc1Cc1c(C)nc2nc(SCC(=O)NCCc3ccc(Cl)cc3)nn2c1C,–,inactive: 11.5%
Cc1cccc(Nc2ncc3c(n2)CC(C)CC3=O)c1 (stereo not given),active: 11.2 µM,–
CCn1c(Cc2ccccc2)nnc1SCc1cccc(C(=O)O)c1,"inconclusive: 22.4 µM [activator, partial curve, poor fit]",–
O=c1c(-c2ccc(O)cc2)coc2cc(OC3OC(CO)C(O)C(O)C3O)ccc12 (stereo not given),"inconclusive: 25.1 µM [activator, single point]",–
O=C(COC(=O)CCC(=O)c1cccs1)Nc1ccccc1[N+](=O)[O-],"inconclusive: 6.31 µM [activator, single point]",–
Cc1ccc(OC(=O)NC2CCS(=O)(=O)C2)cc1C (stereo not given),"inconclusive: 0.447 µM [activator, full curve]",–
CN(Cc1nc2ccccc2n1C)S(C)(=O)=O,"inconclusive: 3.55 µM [activator, partial curve, poor fit]",–
O=C(Nc1cccc(-c2nnc(-c3ccccc3)o2)c1)C1CCCCC1,"inconclusive: 4.47 µM [activator, partial curve]",–

SMILES,Potency,"activity change, positive = activation"
Cc1ccnc(NC(=O)CCC2CCCCC2)c1,"inconclusive: 12.6 µM [activator, partial curve, poor fit]",–
Cc1c(C(=O)O)oc2c(F)cccc12,–,inactive: 7.09%
C[C@@]12CCC(=O)C=C1CC[C@H]1[C@H]3CC[C@](O)(C(=O)CO)[C@]3(C)CC(=O)[C@@H]12,–,inactive: -2.68% [at 20.6 µM]
O=C(Nc1cccnc1)c1ccc(N2CCCC2)c([N+](=O)[O-])c1,"inconclusive: 17.8 µM [activator, partial curve, poor fit]",–
O=C(Nc1ccc2oc(-c3ccc(Br)cc3)nc2c1)c1cc2ccccc2o1,"inconclusive: 35.5 µM [activator, single point]",–
CCN1CCc2nc(NC(=O)c3ccc4c(c3)OCCO4)sc2C1,"inconclusive: 3.55 µM [activator, partial curve]",–
O=C(COc1ccccc1)Nc1nc(-c2cccs2)cs1,–,inactive: -10.3%
Cc1ccc(SCc2nnc(N)s2)cc1,–,inconclusive: 30.2% [activator]
O=C(c1ccccc1)n1nc(-c2ccc(Cl)cc2)nc1NCc1ccco1,"inconclusive: 17.8 µM [activator, partial curve, poor fit]",–
Oc1ccc(/C=N/Nc2ccc(C(F)(F)F)cn2)cc1O,"inconclusive: 22.4 µM [activator, single point]",–
CCN(CC)c1ccc(/C=N/Nc2cccc(C)c2)c(O)c1,"inconclusive: 28.2 µM [activator, single point]",–
Cc1ccc(C2OCC3(CO)COC(c4ccc(C)cc4)N23)cc1 (stereo not given),"inconclusive: 14.1 µM [activator, single point]",–
CCSCc1nnc(SCC(=O)Nc2ccc(OC)cc2)n1C,"inconclusive: 35.5 µM [activator, single point]",–
COC(=O)c1ccccc1NC(=O)N1CCN(S(=O)(=O)c2ccc(Cl)cc2)CC1,"inconclusive: 5.62 µM [activator, single point]",–
O=C(/C=C/c1cn(-c2ccccc2)nc1-c1cccnc1)N1CCCC1,–,inactive: -12.5%
COC(=O)c1[nH]c2ccc(C)cc2c1NC(=O)CN1CCCC(C)(C)C1,"inconclusive: 0.158 µM [activator, full curve]",–
CCCCOC(C)n1cc(F)c(=O)[nH]c1=O (stereo not given),"inconclusive: 5.62 µM [activator, single point]",–
COc1cc(NC(=O)COC(=O)c2nc3nc(C)cc(C)n3n2)cc(OC)c1,"inconclusive: 0.447 µM [activator, single point]",–
COc1cccc(C(=O)Nc2nnc(C(C)C)s2)c1,active: 2.51 µM,–
CC1=NN(C(=O)c2ccncc2)C(=O)[C@@H]1N=Nc1ccc2ccccc2c1,"inconclusive: 2.82 µM [activator, single point]",–
CCOc1ccccc1Nc1nnc(SCC(=O)NC(Cc2c[nH]c3ccccc23)C(=O)O)s1 (stereo not given),–,inactive: -1.12%
CCOC(=O)c1cccc(NC(=O)C2=C(C)C(=O)OC23CCCCC3)c1,–,inactive: -3.36%
Cc1nc2cc(N=NC3=C(O)CCCC3=O)ccc2s1,"inconclusive: 25.1 µM [activator, single point]",–
CNc1cccc2c1C(=O)c1ccccc1C2=O,"inconclusive: 35.5 µM [activator, single point]",–
CCCN(CCC)C(=O)C1CCN(c2cc(C)nc3c(-c4ccc(Cl)cc4)c(C)nn23)CC1,–,inactive: 1.89%

SMILES,Potency,"activity change, positive = activation"
CCN(CC)CCCC(C)n1c(-c2ccccc2)nc2c(NCc3ccccc3)nc(C)nc21 (stereo not given),–,inactive: -14.2%
COc1ccc(NC(=O)Cn2c(=O)n(-c3ccc(OC)cc3)c(=O)c3sc4ccccc4c32)cc1,"inconclusive: 0.0562 µM [activator, full curve]",–
O=C(NCCc1ccccc1)c1ccc(=O)oc1,–,inactive: 21.5%
COc1ccccc1OCc1nc2ccccc2s1,active: 3.16 µM,–
O=C(COc1ccccc1)Nc1nc2ccccc2[nH]1,"inconclusive: 12.6 µM [activator, single point]",–
Nn1c(COc2cccc(Cl)c2)nc2ccccc2c1=O,"inconclusive: 0.355 µM [activator, full curve, poor fit]",–
Nn1c(CSc2ccccn2)nc2ccccc2c1=O,active: 11.2 µM,–
O=C(/C=C/c1cn(-c2ccccc2)nc1-c1cccnc1)NCCN1CCOCC1,"inconclusive: 3.16 µM [activator, full curve]",–
Cc1cc(C(=O)CN2C(=O)c3cccc(N)c3C2=O)c(C)n1Cc1cccs1,active: 8.91 µM,–
CCOc1cc(/C=C2\C(=O)N(c3nc(-c4ccc(Br)cc4)cs3)N=C2c2ccccc2)ccc1O,–,inactive: -42.1%
O=C(NCc1ccco1)C(Cc1ccccc1)N1C(=O)C2C3C=CC(C3)C2C1=O (stereo not given),"inconclusive: 0.0501 µM [activator, full curve, poor fit]",–
Cc1ccc2c(c1)c(=O)c1ccccc1n2CCCC(=O)Nc1ccc(C)c(C)c1,"inconclusive: 35.5 µM [activator, single point]",–
Cc1ccc(-n2ncc(N(C)C)c(Cl)c2=O)cc1,"inconclusive: 1.26 µM [activator, partial curve]",–
CCOC(=O)CNC(=O)c1cnn2cccnc12,–,inactive: -0.859%
CC(/C=N/Nc1nc2ccccc2[nH]1)=C\c1ccccc1,active: 2.51 µM,–
COc1cc(N=Nc2cccc(S(N)(=O)=O)c2)c2ccccc2c1N,"inconclusive: 5.01 µM [activator, single point]",–
Cc1oc(/N=C/c2ccccc2O)c(C#N)c1C,–,inactive: 1.64%
Cc1ccc(/C=C/C(=O)Nc2nccs2)o1,active: 11.2 µM,–
CSCCC(NC(=O)OC(C)(C)C)C(=O)Oc1ccc2c(=O)c(-c3ccc4c(c3)OCCO4)coc2c1 (stereo not given),active: 17.8 µM,–
CC(C)(C)c1nnc(N/N=C/c2ccccc2O)n(N)c1=O,–,inactive: -70.7%
CC(C)NCc1cc(Br)ccc1OCc1ccccc1,–,inactive: 1.35%
Cc1ccc(S(=O)(=O)NCC(=O)OCC(=O)c2cc(C)n(-c3ccccc3)c2C)cc1,"inconclusive: 1.26 µM [activator, full curve, poor fit]",–
CCCCCC(=O)N/N=C/c1ccc(N(C)C)cc1,"inconclusive: 35.5 µM [activator, single point]",–
CCc1cc(Br)ccc1N1C(=O)C2CC=CCC2C1=O (stereo not given),–,inactive: -38%
CCn1c(=O)cc(OCC(=O)N2CCc3ccccc32)c2ccccc21,"inconclusive: 4.47 µM [activator, partial curve, poor fit]",–
